Measured values reported in PubChem BioAssay AID493208 (National Center for Advancing Translational Sciences (NCATS), 2011).
Hit rate of the full screen: of about 44,000 compounds, about 340 (0.77%) were called active. Inconclusive results (about 5%) are left out. The call rests on the fitted dose curve; in most records, active means well fitted inhibition curve with a large enough effect; inconclusive means small, poorly fitted or top-dose-only effect; inactive means flat fitted curve, though single readings scatter. Some of the results follow.

Experiment: Acumen qHTS Assay for Inhibitors of the mTORC1 Signaling Pathway in MEF (Tsc2-/-, p53-/-) Cells: Sytravon;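 further: plate controls were DMSO for no effect and rapamycin for full effect; nearly all actives have a fitted effect of over 50% in size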
Conditions: phospho-rpS6 immunofluorescence/PI, 24 h; series mostly up to 38.3 µM; activity change, negative = inhibition: at the top concentration
Method in brief: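 Plate MEFs (Tsc2-/-, p53-/-, empty vector) in DMEM/10% FBS; after 24 h add compound, incubate 24 h at 37 degree Celsius; fix in PFA/TX-100, block, stain phospho-rpS6 and 10 uM PI; scan at 488 nm; report % positive cells.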

Activity change, negative = inhibition, inactive:
CN(C)S(=O)(=O)c1ccc2c(c1)N(CC(=O)Nc1ccc(OC(F)(F)F)cc1)C(=O)CS2 1.75%
C=Cc1ccc(Cn2c(C(=O)O)c(CNC3CCCC3)c3ccc(C)cc32)cc1 -0.212%
Cc1cccc(N(C)C(=O)CCS(=O)(=O)c2ccc3c(c2)oc(=O)n3C)c1 7%
COc1ccc(OCC(=O)NC2CC(=O)N(c3cccc(OC)c3)C2)cc1 (stereo unspecified) 0.623%
COc1ccc(NC(=O)c2cc(S(=O)(=O)N3CCCCCC3)cn2C)c(OC)c1 -9.07%
COc1ccc(NC(=O)CN2CCN(Cc3ccc(F)cc3)S2(=O)=O)cc1Cl -1.91%
CC(C(=O)NCc1ccc(Cl)cc1)n1ccc2cc(S(=O)(=O)N3CCCCCC3)ccc21 (stereo unspecified) -3.02%
O=C(NCc1ccccc1Cl)C1CCCN(S(=O)(=O)c2cccc3nsnc23)C1 (stereo unspecified) -0.708%
COc1ccc(OC)c(CNC(=O)c2c3c(nc4ccccc24)C(=O)N(C2CCCCC2)C3)c1 -16.8%
CCC(=O)N1CCc2cc(Br)cc(S(=O)(=O)N3CCN(c4ccc(C)cc4)C(C)C3)c21 (stereo unspecified) -15%
CCOC(=O)c1c(C)[nH]c(C)c1S(=O)(=O)N1CCC(C(=O)N2CCN(c3ccccc3)CC2)CC1 -6.43%
Cc1ccccc1-c1noc(-c2cccnc2NCc2ccco2)n1 -1.15%
CCOC(=O)c1c(C)[nH]c(C)c1S(=O)(=O)N1CCC(C(=O)N2CCN(c3cccc(Cl)c3)CC2)CC1 -5.07%
Cc1ccc2occ(CC(=O)N(Cc3ccccc3Cl)C3CCS(=O)(=O)C3)c2c1 (stereo unspecified) -0.728%
CCOC(=O)c1cccc(NC(=O)NCc2cccn2Cc2ccccc2)c1 -7.31%
O=C(CSc1oc(-c2ccccc2)nc1S(=O)(=O)c1ccc(Cl)cc1)Nc1ccc(F)cc1 -0.217%
Cc1ccc(Cn2cc(CCC(=O)NC3CCC(C)CC3)c3ccccc32)cc1 (stereo unspecified) -4.66%
CC1CCC(Nc2nc3c(-c4ccc(Cl)cc4)nnn3c3ccccc23)CC1 (stereo unspecified) 3.4%
CC(=O)Nc1ccc(/C=C/c2nc(-c3ccccc3O)n(-c3ccccc3)n2)cc1 2.01%
Cn1c(=O)oc2cc(S(=O)(=O)N3CCCC(C(=O)NCCc4ccc(Cl)cc4)C3)ccc21 (stereo unspecified) -16%
COc1ccccc1CNS(=O)(=O)c1ccc2c(c1)NC(=O)C(C)C(=O)N2 (stereo unspecified) -4.51%
Cc1cccc(-c2nc(C)c(CCNC(=O)C(=O)Nc3cccc(Cl)c3C)s2)c1 1.22%
O=C(NCc1ccccc1)c1cc2sccc2n1Cc1ccc(Cl)cc1 -9.69%
COC(=O)c1ccccc1NC(=O)Cn1c(CCC(=O)O)ccc1-c1cccs1 1.21%
Cc1ccc(-c2nc(-c3cc4c([nH]c3=O)CC(C)(C)CC4=O)sc2C)cc1 4.63%
CCCCSc1nc(-c2ccc(OC)cc2)ccc1C#N -15.9%
CCOc1ccc(N(C)C(=O)CS(=O)(=O)c2cccc3nsnc23)cc1 -0.0889%
COC(=O)CSc1ncc2c(n1)-c1ccccc1N(Cc1ccccc1C)S2(=O)=O 3.23%
CCC(=O)N1CCc2cc(S(=O)(=O)CCC(=O)Nc3ccc(OC(F)(F)F)cc3)ccc21 1.24%
COc1ccc(CC(=O)Nc2sc3c(c2C(=O)Nc2cccc(Cl)c2)CCCCC3)cc1 -13%
COc1ccc2nc3oc(C(=O)N4CCN(c5cc(C)ccc5C)CC4)cc3cc2c1 -5.64%
COc1ccccc1N1CCN(C(=O)C(CCSC)NS(=O)(=O)c2ccc3c(c2)oc(=O)n3C)CC1 (stereo unspecified) -5.64%
CC(C)Oc1ccc(CNC(=O)CCCN2C(=O)CCn3nc(-c4cccn4C)cc32)cc1 0.759%
O=C(c1ccco1)n1nc(-c2ccccc2)nc1NCc1ccc(Cl)cc1 3.91%
Cc1nn(-c2ccccc2)c2c1N(CCCC(=O)NCc1ccc(N(C)C)cc1)C(=O)CS2 -11%
CCc1ccc(NCc2cc3ccc(OC)cc3n(CC(=O)Nc3ccc(F)cc3F)c2=O)cc1 -3.17%
CCC(=O)N1c2ccccc2CC1C(=O)N1CCN(c2cccc(Cl)c2)CC1 (stereo unspecified) 1.86%
Cc1nn2c(=O)cc(COC(=O)c3ccco3)nc2s1 -5%
COc1cccc(CNCCSc2nnnn2C)c1OCc1ccccc1Cl -0.128%
COc1cccc(CNS(=O)(=O)c2ccc3c(c2)CCN3C(=O)C2CCC2)c1 0.163%
O=C(Nc1ccc(F)cc1)N1CCN(c2ccccc2F)CC1 -1.66%
COc1ccc(N2C(=O)CS(=O)(=O)C23C(=O)N(Cc2cccc(F)c2)c2ccccc23)cc1OC (stereo unspecified) 4.55%
O=C(CC(c1cccs1)N1Cc2ccccc2C1=O)Nc1ccc(F)c(F)c1 (stereo unspecified) -5.61%
Cc1ccc(C)c(S(=O)(=O)c2nnn3c2nc(Nc2ccc(C)c(C)c2)c2sccc23)c1 -1.38%
Cc1cc(=O)[nH]c2nnc(SCc3ccc(F)cc3)n12 0.728%
CCOC(=O)c1ccc(-n2c(CCC(=O)O)ccc2-c2ccc(Br)cc2)cc1 -4.98%
COc1ccc(Cn2c(SCC(=O)NCc3ccc(Cl)cc3)nc3ccsc3c2=O)cc1 -6.2%
Cc1cc(Cl)ccc1OCC(=O)Nc1c(Cl)ccc2nsnc12 -10.8%
O=C(NCc1cccs1)c1ccc(Cn2c(SCc3ccccc3)nc3cccnc32)cc1 -0.829%
O=C(Nc1c(C(=O)N2CCN(c3ccccc3)CC2)oc2ccccc12)c1ccc(Br)o1 -3.47%
COc1ccccc1-c1nc(SCC(=O)NCc2ccc(C)cc2)c2c(=O)n(C)c(=O)n(C)c2n1 -15.2%
O=C(COc1ccccc1F)Nc1ccc2oc(-c3cccc(Cl)c3)nc2c1 0%
Cc1cccc(CN2C(=O)N(c3ccc(C(C)C)cc3)S(=O)(=O)c3ccccc32)c1 0.862%
Cc1ccc(-c2ccc(=O)n(CC(=O)Nc3ccc(C)cc3Cl)n2)cc1 -2.48%
COc1cccc(/C=C/c2nc(C#N)c(NCCc3ccccc3)o2)c1 0.814%
COc1ccc(C(=O)Nc2ccc3oc(-c4cccnc4)nc3c2)cc1 -1.3%
Clc1cccc(N2CCN(c3nc4ccccc4n4nnnc34)CC2)c1 0.173%
COc1ccc(C2C=C(c3ccccc3)Nc3nc(NC(=O)c4cccc([N+](=O)[O-])c4)nn32)cc1 (stereo unspecified) 2.1%
Cc1c(C(=O)NCc2ccccc2)sc2nc3n(c(=O)c12)CCCCC3 4.1%
CCOc1ccc(NC(=O)C2CC(=O)NC(=Nc3ccc(Cl)c(Cl)c3)S2)cc1 (stereo unspecified) -22.7%
CCOC(=O)c1ccc(NC(=O)C2CCCN(c3ncnc4onc(-c5ccc(F)cc5)c34)C2)cc1 (stereo unspecified) -6.04%
